Source: PubChem BioAssay AID652104 (National Center for Advancing Translational Sciences (NCATS), 2013)
Hit rate of the full screen: of about 410,000 compounds, about 7,200 (1.8%) were called active. This list was built around the results that the source calls inconclusive (neither active nor inactive); the mix of calls is not that of the screen. The call rests on the fitted dose curve; in most records, active means well fitted activation curve with a large enough effect; inconclusive means small, poorly fitted or top-dose-only effect, or another doubt; inactive means no such curve, though single readings can be large or run the other way. Potencies of inconclusive entries are left out as doubtful fits.
Potency means the concentration at half of the fitted maximal effect; tags describe the fitted curve by direction and shape.

Test: qHTS of TDP-43 Inhibitors; further: nearly all actives have a fitted effect of over 50% in size; on growth rescue (activation): % of control where 0% means no effect
Conditions: TDP-43 expressing yeast growth rescue, BacTiter-Glo, 24 h; growth rescue (activation): at 46.1 µM (top of the series) unless noted
In short: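 Yeast cells expressing TDP-43 under galactose induction are exposed to compounds for 24 hr at 30 deg C. BacTiter-Glo luminescence measures growth, so protective compounds score as activators.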
For c1ccc(-c2ccc(-c3ccccc3)[nH]2)cc1, the Potency was inconclusive [activator, partial curve].
With Cc1ccccc1CNC(=O)c1ccc2c(c1)N(Cc1ccccc1)CCS2 the Potency was “inactive”.
In the case of COc1cc(C(=O)O)c2c(c1C)OC(=O)c1c(C)cc(O)c(C=O)c1O2, the Potency is reported as inconclusive [activator, partial curve].
In the case of Brc1ccc(-c2csc(N3CCOCC3)n2)cc1, the Potency is reported as inconclusive [activator, partial curve].
For O=C1C=C(c2cccc(Br)c2)C[C@@H](c2ccc(F)cc2)C1, the Potency was active: 20 µM.
In the case of NNC(=O)c1[nH]c2ccc(Br)cc2c1-c1ccccc1, the Potency is reported as inconclusive [activator, single point].
For CC1(C(=O)NCc2ccc(C(F)(F)F)cc2)CCN1Cc1cc2ccccc2o1 (configuration not stated), the Potency was inconclusive [activator, full curve].
For CCOc1ccccc1NC(=O)CSc1nccn1Cc1ccc(F)cc1, the Potency was “inactive”.
In the case of COc1ccc(CSc2nnnn2-c2ccccc2)cc1, the Potency is reported as inconclusive [activator, single point].
In the case of Cc1cccc(OCCCCn2c(C3CC(=O)N(c4ccc(C)cc4C)C3)nc3ccccc32)c1 (configuration not stated), the Potency is reported as active: 31.6 µM.
In the case of CNc1oc(/C=C/c2cc(OC)c(OC)c(OC)c2)nc1C#N, the growth rescue (activation) is reported as inconclusive: 33.3% [activator].
For O=C(COC(=O)c1nc(Cl)ccc1Cl)NC1CCCCC1, the Potency was inconclusive [activator, single point].
In the case of O=C(COc1ccccc1F)Nc1nnc(-c2ccncc2)s1, the Potency is reported as “inactive”.
With Cc1cc(/C=C2\SC(=S)NC2=O)c(C)n1-c1cccc(O)c1 the Potency was “inactive”.
For CCOC(=S)SCC(=O)Nc1nc(-c2ccc(Br)cc2)cs1, the Potency was inconclusive [activator, single point].
For CS(=O)(=O)N1CCN(CC2CC3C=CC2C3)CC1 (configuration not stated), the Potency was “inactive”.
With C=CCC(CC=C)(C(=O)O)c1ccccc1 the Potency was inconclusive [activator, partial curve].
In the case of CCn1c(-c2ccc(-c3ccccc3)cc2)c[nH]c1=S, the Potency is reported as inconclusive [activator, partial curve].
For Cc1ccc(Cl)cc1N(C)C(=O)c1cc2ccc3cccnc3c2[nH]1, the Potency was active: 25.1 µM.
In the case of COCCN(CCOC)Cc1cc(=O)oc2cc(OC)c(Cl)cc12, the Potency is reported as inconclusive [activator, partial curve, poor fit].
With Cc1ccc(C)c2sc(N3CCN(C(=O)c4ccc([N+](=O)[O-])o4)CC3)nc12 the Potency was “inactive”.
In the case of Cc1cc(C(=O)CSc2nnc(C3COc4ccccc4O3)n2C)c(C)n1-c1ccc(F)cc1 (configuration not stated), the Potency is reported as inconclusive [activator, single point].
In the case of Cc1cc(NC(=O)CSc2ncc(C(=O)Nc3ccccc3)c(=O)n2C)no1, the Potency is reported as inconclusive [activator, full curve, poor fit].
For CCC(=O)c1ccc(N2CCN(C(=O)COc3ccc(F)cc3)CC2)c(F)c1, the Potency was inconclusive [activator, single point].
For O=C1NC2=C(CCc3ccccc32)C(c2ccc(Br)cc2)N1 (configuration not stated), the Potency was inconclusive [activator, partial curve].
With Cc1cccn2c(=O)c3cc(C(=O)N4CCCCC4)sc3nc12 the Potency was active: 11.2 µM.
For COc1ccc(CCNC(=O)c2cc3c(=O)[nH]c4ccc(C)cc4c3s2)cc1OC, the Potency was “inactive”.
With COC(=O)Cc1ccc(NC(=O)c2ccc(C(C)(C)C)cc2)cc1 the Potency was inconclusive [activator, single point].
In the case of CC(=O)c1cccc(NC(=O)c2cc(-c3ccc4c(c3)OCCO4)on2)c1, the Potency is reported as inconclusive [activator, partial curve].
For C/C(=N\NC(=S)NC1CCCCC1)c1ccc(OC(F)F)cc1OC(F)F, the Potency was inconclusive [activator, single point].
For Clc1cc(Sc2ccc(Br)cc2)nnc1-c1ccccc1, the Potency was active: 5.01 µM.
In the case of Cc1cccc(N(CC(=O)NCc2ccc(F)cc2)C(=O)c2ccco2)c1, the Potency is reported as “inactive”.
In the case of CC(C)(C)S(=O)N1Cc2cc(C(=O)NCc3ccc4c(c3)OCO4)nc(-c3cccc(-c4cc5ccccc5o4)c3)c2[C@@H]1CCO (some centres not stated), the Potency is reported as “inactive”.
In the case of Cc1ccccc1CN1C(=O)C(O)(CC(=O)c2cccc(Br)c2)c2ccccc21 (configuration not stated), the Potency is reported as “inactive”.
For O=C(Cc1ccc(-c2ccccc2)cc1)Nc1ccccn1, the Potency was active: 14.1 µM.
For O=S(=O)(NC(=S)NC1CCCCC1)c1ccc(Br)cc1, the Potency was active: 20 µM.
In the case of COc1ccc(-c2cc(-c3ccc(F)cc3)nc3c2COc2ccccc2-3)cc1, the Potency is reported as “inactive”.
In the case of CCN(CC(=O)Nc1ccc2c(c1)OCCO2)C(=O)/C=C/c1cccc(C(F)(F)F)c1, the Potency is reported as inconclusive [activator, single point].
With COc1cc(OC)cc(-c2cc3ccc(OC)cc3cn2)c1 the Potency was “inactive”.
For Cc1cc(=O)n(C)c(=O)n1CCCCCCOc1cccc([N+](=O)[O-])c1, the Potency was inconclusive [activator, single point].
In the case of COc1ccc(N(C)C(=O)c2cc3c(s2)-c2ccccc2OC3)c(OC)c1, the Potency is reported as inconclusive [activator, partial curve].
For COc1ccc(CN(C)C(=O)COc2cccc(-n3cnnn3)c2)cc1OC, the Potency was “inactive”.
For CC(=O)Nc1cccc(Oc2cnc3ccccc3n2)c1, the Potency was inconclusive [activator, single point].
With CC(C)(C)c1nn(-c2ccccc2)c2[nH]c(=O)c(CNc3ccc4c(c3)OCCO4)cc12 the Potency was inconclusive [activator, single point].
With COc1ccc(OCC(=O)N2CCN(c3nnc(-c4ccc(C)cc4)c4ccccc34)CC2)cc1 the Potency was active: 22.4 µM.
With CCn1c(CCCNC(=O)c2cccs2)nc2ccccc21 the Potency was inconclusive [activator, partial curve].
In the case of N=c1oc2cc(O)ccc2cc1C(=O)Nc1ccc(Br)cc1, the Potency is reported as inconclusive [activator, single point].
For Cc1c(C(=O)NCc2ccccc2)oc2c1-c1[nH]ncc1CC2, the Potency was “inactive”.
For O=C(CCc1ccccc1)Nc1ccccc1[N+](=O)[O-], the Potency was inconclusive [activator, partial curve].
With Cc1ccc(NC(=O)/C=C\C(=O)O)c([N+](=O)[O-])c1 the Potency was inconclusive [activator, partial curve].
For Cc1[nH]n(-c2ccc([N+](=O)[O-])cc2)c(=O)c1C=NCCN1CCN(C(=O)c2ccc(Br)cc2)CC1, the Potency was “inactive”.
With Cc1cc(=O)n2c(nc3ccccc32)s1 the Potency was inconclusive [activator, partial curve].
In the case of CCCc1ccc2oc(C(=O)N3CCCC3)c(C)c2c1, the Potency is reported as inconclusive [activator, partial curve].
For COc1cccc(NC(=O)CN(C)CC(=O)Nc2ccc(Cl)cc2[N+](=O)[O-])c1, the Potency was active: 17.8 µM.
With Cc1ccc(C(C)NC(=S)NCc2ccc(F)cc2)c(C)c1 (configuration not stated) the Potency was inconclusive [activator, partial curve].
In the case of COc1ccc(NC(=O)c2cc(-c3cc(F)ccc3OC(C)C)n[nH]2)cc1OC, the Potency is reported as active: 35.5 µM.
With Cc1ccc(S(=O)(=O)N(C)c2ccc(OC(=O)CN3C(=O)NC(C)(c4ccccc4)C3=O)cc2)cc1C (configuration not stated) the Potency was “inactive”.
For CCOc1ccccc1C(=O)Nc1cc2c(cc1N1CCCCC1)n(C)c(=O)n2C, the Potency was active: 31.6 µM.
With Nc1ccc2oc3ccccc3c2c1 the Potency was inconclusive [activator, full curve, poor fit].
For O=C(Nc1ccc(Cl)c(C(F)(F)F)c1)c1cc2nc(-c3ccc4c(c3)OCO4)cc(C(F)(F)F)n2n1, the Potency was inconclusive [activator, single point].
In the case of CN(CCC1CCOCC1)C(=O)c1cc(COc2c(F)cccc2F)on1, the Potency is reported as inconclusive [activator, partial curve].
In the case of CC(=O)c1ccc(NC(=O)CN2C(=O)CCc3cc(S(=O)(=O)N4CCC(C)CC4)ccc32)cc1, the Potency is reported as inconclusive [activator, full curve, poor fit].
For CCOc1ccccc1/C=N/Nc1cc(C)nc2ccc(C)cc12, the Potency was inconclusive [activator, partial curve].
With Cc1cc(C)nc(NS(=O)(=O)c2ccc(NC(=O)c3ccc4c(c3)OCCO4)cc2)n1 the Potency was “inactive”.
In the case of CC(C)OC(=O)c1c(NC(=O)c2cc3nc(-c4ccccc4)cc(C(F)(F)F)n3n2)sc2c1CCCC2, the Potency is reported as “inactive”.
With COc1ccc(OC)c(-n2cnc3cc(C(=O)NCCc4ccccc4)ccc32)c1 the Potency was inconclusive [activator, partial curve].
In the case of CCC(C)(C)C1CCC(NC(=O)c2ccc(S(=O)(=O)N3CCOCC3)cc2)CC1 (configuration not stated), the Potency is reported as “inactive”.
For CN(C)S(=O)(=O)c1cccc(NC(=S)NN=C(Cc2ccccc2)Cc2ccccc2)c1, the Potency was inconclusive [activator, partial curve, poor fit].
In the case of Cc1ccc(CN(C(=O)c2ccc([N+](=O)[O-])cc2)c2ccccn2)cc1, the Potency is reported as “inactive”.
In the case of CCOc1ccccc1N(CC)C(=O)c1cc2c(=O)n(CC)c3ccccc3c2s1, the Potency is reported as “inactive”.
With CCOC(=O)C1CSc2[nH]c(=O)sc2C1c1ccccc1 (configuration not stated) the Potency was inconclusive [activator, single point].
With Cc1cccc(NC(=O)c2sc3nc(C)nc(N4CCOCC4)c3c2C)c1 the Potency was inconclusive [activator, partial curve].
